In PubChem BioAssay AID1159614 (National Center for Advancing Translational Sciences (NCATS), 2016):
Screen size: about 45,000 compounds; about 65 (0.1%) were called active. Calls follow the shape of the dose curve; as a rule, active = well fitted activation curve with a large enough effect; inconclusive = small, poorly fitted or top-dose-only effect; inactive = no such curve, though single readings can be large or run the other way. The list shows a part of the results.

The molecules below were run against Galactocerebrosidase (Homo sapiens) (UniProt P54803) (assay: A Novel Cell-Based Assay to Identify Small Molecules for B -Galactocerebrosidase). Details: 145M-Twi-hGALC-G270D cells (Twitcher mouse brain line with human GALC G270D), HMU-beta-Gal fluorescence, 48 h; series mostly up to 57.5 µM; activation: at the top concentration.
Text: Lysosomal storage diseases (LSDs) are caused by genetic mutations in genes encoding proteins important for normal lysosomal function. Globoid cell leukodystrophy (GLD), mostly known as Krabbe disease, is a prototype of the neurological LSDs caused by deficiency of beta-galactocerebrosidase (GALC). In brain specimens of GLD patients, psychosine levels are substantially elevated. At elevated concentrations, psychosine becomes cytotoxic to neuronal cells, particularly to oligodendrocytes (OLG), neural cells responsible for myelin formation. Therefore, the biochemical disturbances in GLD are manifested by different degrees of brain demyelination resulting in a broad spectrum of neurological manifestations. Most of the FDA-approved therapies are based on enzyme replacement therapeutic (ERT) agents, which treat non-neurological symptoms of Gaucher disease, Fabry disease, few mucopolysaccharidoses and Pompe disease. Unfortunately, in GLD, a primarily neurological LSD, ERT agents, as large molecular weight molecules unable to cross the blood-brain barrier, which makes this an inefficacious therapeutic approach. In GLD, increasing the residual GALC activity just above the critical threshold (~10% of wild type enzymatic activity), the cytotoxic levels of psychosine will be reduced, avoiding the OLGs apoptosis and the subsequent demyelination process. This will translate in disease stabilization and amelioration of GLD patient symptoms.
A cell-based assay in 1,536-well plate format was developed to implement a quantitative high-throughput screening (qHTS) assay using GLD-disease relevant cells to identify small molecules that produce enhancements of the residual enzymatic activity levels of mutants GALC found and prevalent in GLD patients. Compounds that are active may therefore have some therapeutic application for GLD. After the treatment of live cells for a determined period, using a fluorescent GALC specific substrate, the mutant residual GALC activity is measured. This cell-based qTHS assay was used to screen part of the MLPCN library for small molecule able to increase the mutant GALC enzymatic activity. In this assay, increased fluorescent signal corresponds to enhanced levels of mutant GALC residual enzymatic activity. Activation is the desired outcome for this assay.
NIH Chemical Genomics Center [NCGC]
NIH Molecular Libraries Probe Centers Network [MLPCN]
Assay Submitter (PI): Gustavo Maegawa MD,PhD, University of Florida, Gainesville, FL
2)#Two cell lines were established for the assay: 145M-Twi-hGALC-G270D (brain-derived Twitcher cell line stably expressing human GALC-G270D) and 145M-Twi-hGALC-WT (same 145M-Twi stably expressing human GALC wild type). The Twitcher is the murine C57B/6 model for GLD with naturally occurring homozygous nonsense GALC mutation. The 145M-Twi cell line was established at Maegawa lab (Ribbens J et al 2014).
a.#Media: DMEM/F12 (1:1) with 10% fetal bovine-serum (FBS) with penicillin/streptomycin (PS-1X - 100 I.U./mL of penicillin+100 ug/mL of streptomycin).
b.#The 6-Hexadecanoylamino-4-methylumbelliferyl-b-D-galactoside (HMU-B-gal) substrate was prepared as per Wiederschain et al 1992. Using 20-mL borosilicate tubes, 2.20 mg of HMU-b-Gal was added in each tube to prepare substrate-film with a final air-nitrogen stream evaporation to remove all diluent solvents.
c.#The HMUb-Gal substrate buffer consists of 0.2 M Na2HPO4 (sodium phosphate dibasic)/ 0.1 M Citric Acid with the pH adjusted to 5.2 using HCl. Sodium Azide at 0.02% and Sodium Taurocholate (NaTC) at 1 mg/mL were added to this substrate buffer.
d.#The HMU-b-Gal stopping buffer consist of 0.5 M NaHCO3 (sodium bicarbonate) /0.5 M Na2CO3 (sodium carbonate). […] Triton X-100 at 0.25% was added.
4)#Preparation of HMU-b-Gal substrate tubes
Adding 18.6 mL of the HMUb-Gal substrate buffer to each 20-mL tube (2.20 mg of HMU-b-Gal) will reach a concentration of 0.2 mM. Vortex well the tube until the solution is fully homogenized (clear cloudy solution). […]
Also: 0% is about no effect; nearly all actives have a fitted effect of over 65% in size.

Sequence of UniProt P54803 (P54803 whole entry, looked up): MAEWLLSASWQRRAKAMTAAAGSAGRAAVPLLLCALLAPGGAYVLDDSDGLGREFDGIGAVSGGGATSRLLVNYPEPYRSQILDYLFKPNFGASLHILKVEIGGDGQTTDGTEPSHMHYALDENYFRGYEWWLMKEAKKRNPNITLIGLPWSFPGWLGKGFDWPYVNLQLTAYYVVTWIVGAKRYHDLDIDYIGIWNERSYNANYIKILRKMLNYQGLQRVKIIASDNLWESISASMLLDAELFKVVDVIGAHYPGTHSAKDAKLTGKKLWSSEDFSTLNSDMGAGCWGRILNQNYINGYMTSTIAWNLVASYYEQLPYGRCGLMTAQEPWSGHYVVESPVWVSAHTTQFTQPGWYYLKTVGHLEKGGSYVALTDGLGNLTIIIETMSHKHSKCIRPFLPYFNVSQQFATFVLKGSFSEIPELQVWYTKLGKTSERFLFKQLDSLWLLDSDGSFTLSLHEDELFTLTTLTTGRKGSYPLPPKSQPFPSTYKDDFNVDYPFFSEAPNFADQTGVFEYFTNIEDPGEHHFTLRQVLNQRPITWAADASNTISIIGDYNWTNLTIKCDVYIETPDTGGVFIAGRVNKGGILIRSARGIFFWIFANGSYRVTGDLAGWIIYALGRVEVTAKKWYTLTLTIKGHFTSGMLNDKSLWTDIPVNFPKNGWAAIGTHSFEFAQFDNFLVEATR

activation, inactive:
CCN1CCN(c2ncnc3c2cnn3-c2ccc(F)cc2)CC1 -10.4%, CCOC(=O)c1cc(CC)sc1NC(=O)COc1ccccc1C -8.23%, COc1ccc(C(=O)NCC(c2ccc3c(c2)OCO3)N2CCN(C)CC2)cc1OC (stereo unspecified) -21.1%, Cc1cc(NC(=O)CN2CCC(O)CC2)nc2c1c(=O)oc1ccccc12 -15.4%, COc1ccc(NC(=O)c2ccc3oc(=O)c(S(=O)(=O)c4ccc(F)cc4)cc3c2)c(OC)c1 -17.1%, CC(C)c1nc2sc3c(N4CCCCC4)ncnc3c2c2c1CCCC2 -11.1%, COc1ccc(CC(=O)Nc2ccc(-c3nc4ccccc4s3)c(C)c2)cc1 -18.8%, CCOc1ccc(-n2c(SCC(=O)c3ccccc3)nc3c([nH]c4ccccc43)c2=O)cc1 -0.88%, Cc1ccc(Cl)cc1N1CCN(C(=O)c2cc(S(=O)(=O)N3CCCCC3)cn2C)CC1 -27.6%, COc1ccc(C(=O)Oc2ccc(C3NC(=O)c4c(sc5c4CCN(C)C5)N3)cc2OC)cc1 (stereo unspecified) -13.8%, COCC(C)Nc1ncnc2c1cnn2-c1cccc(Cl)c1 (stereo unspecified) -7.74%, COC(=O)c1ccc(CSc2nc3ccncc3n2Cc2ccc(F)cc2)cc1 -4.98%, CC(=O)Nc1ccccc1-c1nc2ccccc2n(C(C)C(=O)Nc2cccc(C)c2C)c1=O (stereo unspecified) 8.85%, CC(=O)N(Cc1cccnc1)c1nc2cc(C)cc(C)c2s1 -8.88%, Cc1ccc(-n2c(=O)[nH]c3sc4c(c3c2=O)CCCC4)cc1 -14%, O=S(=O)(c1ccc(Cl)cc1)c1nnn2c1nc(NCc1ccccc1)c1sccc12 -13.6%, O=C(Nc1ccccc1)N(Cc1cccs1)c1ccc(Cl)cc1 -12.5%, CCOc1ccc(NC(=O)CC2C(=O)N(c3cccc(C)c3)C(=O)N2CCC2=CCCCC2)cc1 (stereo unspecified) -17.7%, CC1CN(c2cc3c(cc2F)c(=O)c(C(=O)O)cn3-c2ccc(F)cc2F)CCN1 (stereo unspecified) -7.93% [at 5.77 µM], CSc1ccc(/C=C/c2nc3ccccc3n2S(=O)(=O)c2ccc(F)c(C)c2)cc1 -20.3%, CCOc1ccc(NC(=O)CCc2c(C)nc3c(c(C)nn3-c3ccccc3)c2C)cc1 -13%, CCc1ccc(CN(Cc2ccco2)C(=O)c2ccc(C)cc2)cc1 -2.52%, Cc1ccc(S(=O)(=O)n2nc(C)c(S(=O)(=O)N3CCCCC3)c2C)cc1 0.493%, CCCCN(CC)C(=O)C1CCC(CNS(=O)(=O)c2cccc3nsnc23)CC1 (stereo unspecified) -13.1%, Cc1cc(NC(=O)c2ccco2)cc(-c2nc3cc(Cl)ccc3o2)c1O -10%, COc1ccccc1C(=O)N(Cc1ccco1)Cc1ccccc1F 2.18%, COc1ccc(Cl)cc1NC(=O)CN1C(=O)CSc2ccc(S(=O)(=O)N3CCCC3)cc21 -7.39%, COc1cc(OC)c(NC(=O)CN(C)S(=O)(=O)c2ccc3c(c2)CCCC(=O)N3)cc1Cl -27.6%, CCc1ccc(C(=O)c2cn(CC(=O)Nc3cccc(C)c3C)c3nc(C)ccc3c2=O)cc1 -8.52%, COc1ccc(CCNC(=O)C2=C(C)C(=O)OC23CCCCC3)c(OC)c1 -18.9%, COc1ccc(CNC(=O)CCc2c(C)nn(-c3ccc(N4CCOCC4)nn3)c2C)cc1 0.816%, Cc1ccc(CNC(=O)c2cc(Sc3ccc(F)cc3F)nc3ccccc23)cc1 -20.3%, Cc1cccc(NC(=O)CSc2nc(C)c(Cc3ccccc3)c(=O)[nH]2)c1C -17.5%, CCC(C(=O)N(C)Cc1ccccc1)n1nc(C)c2sc3ccccc3c2c1=O (stereo unspecified) -12.8%, COc1ccc(NC(=O)C2CCCN(S(=O)(=O)c3ccc4[nH]c(=O)ccc4c3)C2)cc1OC (stereo unspecified) -7.82%, Cc1ccc2ccc3cc(C(=O)Nc4ccc(C)c(F)c4)nc3c2[nH]1 -22.9%, CC(=O)N1CCCC1c1nc2ccccc2n1Cc1cc(C)ccc1C (stereo unspecified) -11%, CCOC(=O)N1CCN(S(=O)(=O)N2CCCC(C(=O)NCc3ccccc3OC)C2)CC1 (stereo unspecified) -6.13%, CCOC(=O)c1ccc(CN(Cc2ccc(F)cc2)S(=O)(=O)c2cc(C(=O)Nc3ccccc3CC)ccc2F)cc1 -20.7%, O=C(NCC(c1cccnc1)N1CCc2ccccc2C1)C(=O)Nc1cccc(Cl)c1 (stereo unspecified) -15.4%, COc1ccc(-c2cc(C(=O)NCCc3ccccc3)c3c(-c4ccccc4)[nH]nc3n2)cc1 -7.17%, O=C(Cc1ccc(F)cc1)Nc1cccc(-c2nc3cccnc3s2)c1 -0.704%, Cc1cccc(N2CCN(C(=O)CCCn3ncn4c(cc5occc54)c3=O)CC2)c1C -13.8%, CCOc1cc(CNCCSc2nnnn2C)cc(Cl)c1OCc1ccc(Cl)cc1 2.35%, CCc1ccc(NC(=O)CCc2c(C)n(C)c3cc(-c4ccccc4C)nn3c2=O)cc1 -6.03%, Cc1ccc(CCNS(=O)(=O)c2ccc3c(c2)CCN3C(=O)CCC(=O)O)cc1 -12.7%, CCOC(=O)c1cnc2c(ccc3ccccc32)c1Nc1ccc(OC)cc1OC -3.64%, COc1cccc(N=C2SC(C(=O)Nc3cccc(Cl)c3)CC(=O)N2C)c1 (stereo unspecified) -29.7%, Cc1ccc(/C=C/c2nc3ccccc3n2S(=O)(=O)c2ccc(Br)cc2)cc1 -11.8%, CC(=O)N1CCc2c(sc3c2c(=O)n(-c2ccccc2)c(=O)n3Cc2cccc(C(F)(F)F)c2)C1 -15.1%, COc1ccc(N2CCN(C(=O)CCc3c(C)nc4cc(-c5cccc(F)c5)nn4c3C)CC2)cc1 -21.3%, Cc1ccccc1C(=O)N1CCCCC1CCN1CCCCC1 (stereo unspecified) -8.91%, COc1ccc(OC)c(NC(=O)CSC2=Nc3ccccc3C3=NC(CCC(=O)NC4CCCCC4)C(=O)N23)c1 (stereo unspecified) -13.7%, COC(=O)c1c(NC(=O)COc2ccc(Cl)cc2C)sc2c1CCCCC2 -2.42%, COc1ccc(C)cc1NC(=O)c1oc2ccc(S(=O)(=O)N3CCOCC3)cc2c1C -6.91%, CCc1nn(CC(=O)NCCCN2CCN(C)CC2)c(=O)c2cc3occc3n12 -10.8%, CSc1ncc(C(=O)N2CCN(c3ccc(Cl)cc3)CC2)c(C)n1 -12.4%, COc1ccc(C(=O)c2c(N)c(-c3nc(-c4ccccc4)cs3)c3ccccn23)cc1 0.815%, COc1ccc2nc3sc(C(=O)N4CCN(c5ccc(F)cc5)CC4)cc3cc2c1 -10.7%, Cc1ccc(C)c(N2CCN(S(=O)(=O)c3ccc4c(c3)CCCN4C(=O)C3CCC3)CC2)c1 -15.6%, CCc1ccc(C(=O)CSc2nc(-c3ccccc3)nc3c2CCCC3)cc1 -11.8%
